Test results as given in paper PMC12900513.
These are yes or no findings as the source states them, for the method shown. In cells and extracts the contact can be indirect. Some results given as binding are weak or reduced against the parent protein; the word gives no strength. For part of these data: Sequences can lack the tags named with a protein.

Chains of the proteins cited; added tags and fusions are not shown. Lines headed by an entry give the natural chain unless they say otherwise; changes in a name come on top. Residues count along the entry.
UniProt P98161: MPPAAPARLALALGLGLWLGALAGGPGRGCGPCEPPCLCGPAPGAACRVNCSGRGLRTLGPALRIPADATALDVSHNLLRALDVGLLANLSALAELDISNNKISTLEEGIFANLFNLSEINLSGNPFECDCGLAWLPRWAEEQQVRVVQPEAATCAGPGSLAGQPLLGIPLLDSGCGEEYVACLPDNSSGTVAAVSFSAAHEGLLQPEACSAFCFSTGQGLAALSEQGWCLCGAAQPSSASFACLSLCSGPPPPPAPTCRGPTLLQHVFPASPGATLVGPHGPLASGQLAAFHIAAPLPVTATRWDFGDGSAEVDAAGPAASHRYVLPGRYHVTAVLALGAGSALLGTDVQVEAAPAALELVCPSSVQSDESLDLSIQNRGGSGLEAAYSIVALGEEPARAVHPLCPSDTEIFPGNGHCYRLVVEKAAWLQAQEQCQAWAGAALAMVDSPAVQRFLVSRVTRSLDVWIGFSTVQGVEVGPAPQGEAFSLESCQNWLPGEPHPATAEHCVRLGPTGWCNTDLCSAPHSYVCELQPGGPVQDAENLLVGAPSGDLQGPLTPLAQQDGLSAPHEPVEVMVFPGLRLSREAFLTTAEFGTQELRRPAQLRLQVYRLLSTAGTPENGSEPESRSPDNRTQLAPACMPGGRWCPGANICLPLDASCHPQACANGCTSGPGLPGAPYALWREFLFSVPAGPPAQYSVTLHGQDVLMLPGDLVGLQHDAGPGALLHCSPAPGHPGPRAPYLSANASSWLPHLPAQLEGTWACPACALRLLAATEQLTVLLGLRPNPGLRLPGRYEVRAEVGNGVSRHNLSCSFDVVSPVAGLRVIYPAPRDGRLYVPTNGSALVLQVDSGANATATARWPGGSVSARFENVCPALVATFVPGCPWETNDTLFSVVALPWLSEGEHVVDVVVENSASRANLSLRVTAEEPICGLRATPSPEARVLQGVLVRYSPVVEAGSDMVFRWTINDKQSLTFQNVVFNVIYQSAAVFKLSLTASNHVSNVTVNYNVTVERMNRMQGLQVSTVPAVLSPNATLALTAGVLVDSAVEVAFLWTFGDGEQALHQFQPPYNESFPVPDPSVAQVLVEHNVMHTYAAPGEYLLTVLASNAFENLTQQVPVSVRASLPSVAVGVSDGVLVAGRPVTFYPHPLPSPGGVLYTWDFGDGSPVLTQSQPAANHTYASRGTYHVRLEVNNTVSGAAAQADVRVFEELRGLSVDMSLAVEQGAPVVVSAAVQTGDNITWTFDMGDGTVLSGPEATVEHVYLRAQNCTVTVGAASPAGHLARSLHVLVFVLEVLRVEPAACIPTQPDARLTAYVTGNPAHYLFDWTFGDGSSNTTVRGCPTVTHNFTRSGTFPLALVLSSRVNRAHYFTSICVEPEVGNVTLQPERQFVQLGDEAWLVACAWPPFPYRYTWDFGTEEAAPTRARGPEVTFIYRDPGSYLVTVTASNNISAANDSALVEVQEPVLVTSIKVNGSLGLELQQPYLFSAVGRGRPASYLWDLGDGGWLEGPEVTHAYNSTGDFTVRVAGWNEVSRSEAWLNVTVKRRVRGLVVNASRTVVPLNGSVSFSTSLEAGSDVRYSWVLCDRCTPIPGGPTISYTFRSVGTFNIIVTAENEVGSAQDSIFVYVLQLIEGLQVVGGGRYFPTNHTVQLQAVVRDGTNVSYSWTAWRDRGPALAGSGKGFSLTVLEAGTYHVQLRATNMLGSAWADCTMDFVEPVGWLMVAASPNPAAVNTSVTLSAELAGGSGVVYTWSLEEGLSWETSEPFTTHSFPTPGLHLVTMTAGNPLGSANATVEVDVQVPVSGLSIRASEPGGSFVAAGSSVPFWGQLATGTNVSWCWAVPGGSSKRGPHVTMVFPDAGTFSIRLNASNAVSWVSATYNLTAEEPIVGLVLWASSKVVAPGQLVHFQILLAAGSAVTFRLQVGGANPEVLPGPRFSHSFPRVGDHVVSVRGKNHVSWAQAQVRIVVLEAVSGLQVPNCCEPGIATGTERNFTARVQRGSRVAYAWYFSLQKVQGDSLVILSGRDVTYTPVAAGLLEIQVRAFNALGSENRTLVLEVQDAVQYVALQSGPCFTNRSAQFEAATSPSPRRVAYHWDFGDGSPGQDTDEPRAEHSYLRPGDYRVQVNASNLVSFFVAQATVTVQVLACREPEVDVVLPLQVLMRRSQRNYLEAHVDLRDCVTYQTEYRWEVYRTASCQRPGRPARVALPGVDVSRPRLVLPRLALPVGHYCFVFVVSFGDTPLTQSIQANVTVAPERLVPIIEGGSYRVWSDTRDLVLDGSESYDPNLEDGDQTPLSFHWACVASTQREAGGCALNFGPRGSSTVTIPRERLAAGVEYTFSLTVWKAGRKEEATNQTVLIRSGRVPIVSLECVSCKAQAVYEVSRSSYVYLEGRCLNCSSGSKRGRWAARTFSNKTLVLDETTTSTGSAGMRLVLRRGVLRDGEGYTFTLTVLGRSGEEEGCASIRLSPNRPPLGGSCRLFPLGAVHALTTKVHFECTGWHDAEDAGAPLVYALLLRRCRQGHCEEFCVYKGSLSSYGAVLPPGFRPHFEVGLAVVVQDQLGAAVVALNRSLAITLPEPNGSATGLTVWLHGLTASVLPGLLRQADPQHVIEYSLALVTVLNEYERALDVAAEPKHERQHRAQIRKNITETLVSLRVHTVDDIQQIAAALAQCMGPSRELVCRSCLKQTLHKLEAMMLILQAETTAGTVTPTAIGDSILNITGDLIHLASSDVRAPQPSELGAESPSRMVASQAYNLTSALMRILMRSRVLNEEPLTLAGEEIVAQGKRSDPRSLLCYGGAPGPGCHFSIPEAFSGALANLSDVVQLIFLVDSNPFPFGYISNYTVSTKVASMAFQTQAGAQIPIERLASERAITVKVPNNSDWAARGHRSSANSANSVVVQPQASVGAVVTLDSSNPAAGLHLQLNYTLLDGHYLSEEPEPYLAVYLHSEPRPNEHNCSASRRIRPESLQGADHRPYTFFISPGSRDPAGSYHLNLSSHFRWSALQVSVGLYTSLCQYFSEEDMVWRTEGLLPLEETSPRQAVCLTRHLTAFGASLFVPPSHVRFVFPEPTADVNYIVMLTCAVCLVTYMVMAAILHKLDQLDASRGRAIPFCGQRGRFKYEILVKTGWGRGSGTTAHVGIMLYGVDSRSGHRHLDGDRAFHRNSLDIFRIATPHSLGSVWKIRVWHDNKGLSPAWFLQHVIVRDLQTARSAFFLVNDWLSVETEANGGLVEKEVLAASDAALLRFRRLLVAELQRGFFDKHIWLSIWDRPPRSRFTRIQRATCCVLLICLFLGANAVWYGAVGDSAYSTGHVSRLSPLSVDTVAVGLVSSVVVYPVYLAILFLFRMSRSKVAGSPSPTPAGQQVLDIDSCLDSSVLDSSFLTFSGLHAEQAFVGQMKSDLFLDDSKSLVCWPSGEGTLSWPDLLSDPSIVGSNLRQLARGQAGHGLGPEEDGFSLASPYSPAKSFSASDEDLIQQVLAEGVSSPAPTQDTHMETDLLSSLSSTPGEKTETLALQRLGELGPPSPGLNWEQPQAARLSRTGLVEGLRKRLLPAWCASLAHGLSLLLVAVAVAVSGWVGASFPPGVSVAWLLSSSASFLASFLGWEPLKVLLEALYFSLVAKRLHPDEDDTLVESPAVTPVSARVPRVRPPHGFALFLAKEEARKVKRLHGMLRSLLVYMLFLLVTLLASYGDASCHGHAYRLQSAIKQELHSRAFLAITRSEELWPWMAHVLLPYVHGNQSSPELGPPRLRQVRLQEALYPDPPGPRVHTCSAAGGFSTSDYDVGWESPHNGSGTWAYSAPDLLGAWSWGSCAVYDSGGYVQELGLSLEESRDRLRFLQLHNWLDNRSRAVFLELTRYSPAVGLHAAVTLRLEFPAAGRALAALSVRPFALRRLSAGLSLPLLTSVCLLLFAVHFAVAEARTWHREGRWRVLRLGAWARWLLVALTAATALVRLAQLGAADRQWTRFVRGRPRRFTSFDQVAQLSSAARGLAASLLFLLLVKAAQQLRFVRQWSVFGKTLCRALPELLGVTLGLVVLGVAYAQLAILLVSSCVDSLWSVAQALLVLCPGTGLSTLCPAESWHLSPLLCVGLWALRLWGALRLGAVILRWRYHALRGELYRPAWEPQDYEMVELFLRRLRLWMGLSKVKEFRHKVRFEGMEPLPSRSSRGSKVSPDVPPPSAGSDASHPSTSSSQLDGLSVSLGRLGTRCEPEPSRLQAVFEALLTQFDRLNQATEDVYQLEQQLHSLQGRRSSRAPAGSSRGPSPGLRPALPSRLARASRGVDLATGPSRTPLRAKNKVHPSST
endogenous PC1 (Polycystin-1) in UCL93 cells (human (endogenous in UCL93)): residues 24-4303 of P98161
UniProt Q9H694: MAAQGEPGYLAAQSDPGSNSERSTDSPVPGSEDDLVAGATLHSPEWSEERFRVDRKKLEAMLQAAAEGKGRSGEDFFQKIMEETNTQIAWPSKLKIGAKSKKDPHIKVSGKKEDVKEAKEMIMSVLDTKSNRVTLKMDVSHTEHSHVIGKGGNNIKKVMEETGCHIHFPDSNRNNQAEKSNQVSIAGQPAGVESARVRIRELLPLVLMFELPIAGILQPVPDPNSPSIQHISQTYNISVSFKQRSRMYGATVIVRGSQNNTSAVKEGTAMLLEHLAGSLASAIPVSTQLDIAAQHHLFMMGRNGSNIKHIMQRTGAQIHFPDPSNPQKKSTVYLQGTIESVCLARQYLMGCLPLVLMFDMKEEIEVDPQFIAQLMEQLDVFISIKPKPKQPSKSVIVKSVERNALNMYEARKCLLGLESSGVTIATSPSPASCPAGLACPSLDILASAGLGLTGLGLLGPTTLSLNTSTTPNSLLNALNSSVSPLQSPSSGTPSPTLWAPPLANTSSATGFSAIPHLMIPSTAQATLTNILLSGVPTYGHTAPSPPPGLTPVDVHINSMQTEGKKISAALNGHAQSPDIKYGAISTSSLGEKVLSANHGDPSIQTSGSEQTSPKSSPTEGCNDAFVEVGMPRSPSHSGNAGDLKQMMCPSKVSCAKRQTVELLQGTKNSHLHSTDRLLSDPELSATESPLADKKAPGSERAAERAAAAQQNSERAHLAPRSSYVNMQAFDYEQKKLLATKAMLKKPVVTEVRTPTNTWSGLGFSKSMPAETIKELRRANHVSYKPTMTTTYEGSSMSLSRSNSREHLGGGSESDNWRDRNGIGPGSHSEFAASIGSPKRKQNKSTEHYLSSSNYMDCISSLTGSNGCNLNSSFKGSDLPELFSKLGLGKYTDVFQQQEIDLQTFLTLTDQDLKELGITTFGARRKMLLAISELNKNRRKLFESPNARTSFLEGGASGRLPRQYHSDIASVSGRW

What was measured:
[1] = molecular target: T1, PC2-HA (full-length HA-tagged Polycystin-2) (UniProt Q13563); experiment: co-IP; myc-mBicc1 constructs co-expressed with HA-tagged PC1 or PC2 in HEK-293 cells; the HA-tagged protein as bait
T1 sequence: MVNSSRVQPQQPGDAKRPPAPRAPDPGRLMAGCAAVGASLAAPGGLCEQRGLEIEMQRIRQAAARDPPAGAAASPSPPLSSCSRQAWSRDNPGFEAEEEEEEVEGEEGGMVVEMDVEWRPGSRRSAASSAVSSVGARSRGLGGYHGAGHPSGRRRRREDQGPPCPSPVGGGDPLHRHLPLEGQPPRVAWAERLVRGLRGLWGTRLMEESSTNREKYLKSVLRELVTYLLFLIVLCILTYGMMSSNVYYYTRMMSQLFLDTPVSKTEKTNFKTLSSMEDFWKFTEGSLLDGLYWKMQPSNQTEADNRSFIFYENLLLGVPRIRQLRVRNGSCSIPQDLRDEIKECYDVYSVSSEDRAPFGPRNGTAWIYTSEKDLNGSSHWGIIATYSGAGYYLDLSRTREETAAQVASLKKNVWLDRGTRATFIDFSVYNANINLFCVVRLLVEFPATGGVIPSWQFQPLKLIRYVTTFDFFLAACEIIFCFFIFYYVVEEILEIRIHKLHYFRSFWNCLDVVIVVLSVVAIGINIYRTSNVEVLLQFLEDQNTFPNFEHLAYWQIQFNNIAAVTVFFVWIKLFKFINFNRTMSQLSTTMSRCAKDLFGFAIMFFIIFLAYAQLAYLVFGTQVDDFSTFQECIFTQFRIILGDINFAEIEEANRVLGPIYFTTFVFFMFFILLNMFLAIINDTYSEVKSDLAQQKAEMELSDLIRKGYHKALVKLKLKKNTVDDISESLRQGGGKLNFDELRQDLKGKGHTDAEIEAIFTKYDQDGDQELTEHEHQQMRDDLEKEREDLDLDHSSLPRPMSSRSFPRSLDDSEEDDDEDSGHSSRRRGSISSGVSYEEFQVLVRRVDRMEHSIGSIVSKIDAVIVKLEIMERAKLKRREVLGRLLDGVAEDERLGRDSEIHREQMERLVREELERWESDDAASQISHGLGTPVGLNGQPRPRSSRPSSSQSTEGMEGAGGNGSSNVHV

[2] = molecular target: endogenous PC1 (Polycystin-1) in UCL93 cells (human (endogenous in UCL93)) (UniProt P98161); experiment: co-IP; endogenous proteins in lysates of UCL93 human kidney epithelial cells; IP with rabbit anti-PC1 (2b7), anti-BICC1 or anti-PC2
[3] = molecular target: T2, endogenous PC2 (Polycystin-2) in UCL93 cells (human (endogenous in UCL93)) (UniProt Q13563); experiment: as above
T2 sequence: T1 sequence

[4] = molecular target: T3, myc-mBicc1 IVT (in vitro translated) (mouse) (UniProt Q99MQ1); experiment: co-IP; in vitro binding: in vitro translated myc-mBicc1 incubated with recombinant MBP fusion proteins, IP with an anti-c-myc antibody; only the binder purified
T3 sequence: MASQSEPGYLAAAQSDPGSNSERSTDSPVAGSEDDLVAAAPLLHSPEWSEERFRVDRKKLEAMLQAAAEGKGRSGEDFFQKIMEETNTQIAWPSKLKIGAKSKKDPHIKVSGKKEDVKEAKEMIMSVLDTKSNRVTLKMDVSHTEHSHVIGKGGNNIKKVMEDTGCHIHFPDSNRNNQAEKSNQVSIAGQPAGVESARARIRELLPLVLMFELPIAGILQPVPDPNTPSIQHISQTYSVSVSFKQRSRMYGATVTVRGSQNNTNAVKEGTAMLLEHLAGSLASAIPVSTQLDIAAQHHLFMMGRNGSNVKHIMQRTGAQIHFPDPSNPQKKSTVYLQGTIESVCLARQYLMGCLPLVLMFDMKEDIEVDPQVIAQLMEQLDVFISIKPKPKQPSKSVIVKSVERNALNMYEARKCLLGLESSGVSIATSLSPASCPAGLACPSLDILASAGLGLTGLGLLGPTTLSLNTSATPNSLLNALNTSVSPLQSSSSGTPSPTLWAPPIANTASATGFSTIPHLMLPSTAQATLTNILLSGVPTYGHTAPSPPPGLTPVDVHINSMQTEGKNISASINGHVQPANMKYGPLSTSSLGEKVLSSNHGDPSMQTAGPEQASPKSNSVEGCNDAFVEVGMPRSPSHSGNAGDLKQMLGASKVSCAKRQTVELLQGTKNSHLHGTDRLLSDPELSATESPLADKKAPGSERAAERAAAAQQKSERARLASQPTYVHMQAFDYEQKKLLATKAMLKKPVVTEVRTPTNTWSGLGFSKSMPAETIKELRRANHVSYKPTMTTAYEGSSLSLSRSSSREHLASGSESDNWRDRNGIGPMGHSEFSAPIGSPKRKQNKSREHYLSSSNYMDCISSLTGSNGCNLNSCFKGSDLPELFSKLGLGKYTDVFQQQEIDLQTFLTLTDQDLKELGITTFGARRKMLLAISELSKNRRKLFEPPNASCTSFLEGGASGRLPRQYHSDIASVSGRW

Substance | binding [1] | binding [4] | also measured
myc-mBicc1-ΔSAM (aa1-815) (from UniProt Q99MQ1 1-815) (domain or fragment) | binds |  | 
endogenous BICC1 in UCL93 cells (from UniProt Q9H694 1-974) |  |  | binding [2]: binds; binding [3]: binds
myc-mBicc1-ΔKH (aa352-977) (from UniProt Q99MQ1 352-977) (domain or fragment) | no binding |  | 
MBP-PLAT (from UniProt P98161 3118-3223) (domain or fragment) |  | binds | 
MBP-CT1 (from UniProt P98161 4107-4303) (domain or fragment) |  | binds | 
